The results in this text go back to the BET-seq Pho4 binding data (Le et al. 2018).

The list shows a part of the results. The energies were worked out here from pooled read counts, against the library average; single values are noisy.

The target of the experiment is T1, Pho4 (S. cerevisiae) (UniProt P07270).
T1 sequence: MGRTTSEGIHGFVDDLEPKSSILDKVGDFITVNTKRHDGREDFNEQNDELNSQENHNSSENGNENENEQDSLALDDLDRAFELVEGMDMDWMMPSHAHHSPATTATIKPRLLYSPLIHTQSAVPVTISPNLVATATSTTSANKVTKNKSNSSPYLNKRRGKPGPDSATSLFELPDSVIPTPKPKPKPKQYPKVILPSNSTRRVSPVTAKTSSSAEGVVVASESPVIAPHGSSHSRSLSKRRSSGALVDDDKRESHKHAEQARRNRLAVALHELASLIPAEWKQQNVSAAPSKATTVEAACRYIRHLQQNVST
Put plainly: relative binding free energy (BET-seq); higher = weaker binding. To be noted: reference: library average.
On to TTGGTCACGTGATGCG, for which the “relative binding free energy” value is 0.24 kcal/mol. For the sequence TTTACCACGTGTGATG, the “relative binding free energy” value was 0.01 kcal/mol. Next, GGGGGCACGTGGTTGT: -0.1 kcal/mol. Take GGGTTCACGTGGGATC: the “relative binding free energy” value came out at 0.26 kcal/mol. The value for TTGGACACGTGTCGGT was 0.12 kcal/mol; that for CTAGGCACGTGGTTCT was -0.08 kcal/mol. In the case of AGTGGCACGTGGGGAC, the “relative binding free energy” value was -0.27 kcal/mol. On to ATGTCCACGTGGGGTC, for which the “relative binding free energy” value was 0.06 kcal/mol. Consider TTTGACACGTGTTTAA, for which the “relative binding free energy” value is -0.11 kcal/mol. Regarding TGCTACACGTGGGTAG, the “relative binding free energy” value is -0.04 kcal/mol.

In the case of TTTTGCACGTGATAGT, the “relative binding free energy” value stood at 0.11 kcal/mol. With TTTGTCACGTGTCAAA, the “relative binding free energy” value stood at 0.18 kcal/mol. With GGGTACACGTGTGTAT, the “relative binding free energy” value stood at 0.2 kcal/mol. GGGGTCACGTGGCTCA: the “relative binding free energy” value was found to be 0.02 kcal/mol. Next, CGGTTCACGTGGGTTC: 0.28 kcal/mol; GATGACACGTGGGGAG: 0 kcal/mol; TTGTACACGTGAGTGT: 0.27 kcal/mol. On to CTGTGCACGTGCGTAG, for which the “relative binding free energy” value was -0.03 kcal/mol. The value for TTGAGCACGTGATATA was -0.06 kcal/mol; that for AAGGTCACGTGATGGA was 0.31 kcal/mol; that for TTGTTCACGTGTTTAC was 0.42 kcal/mol. For the sequence TGGTGCACGTGCGTTC, the “relative binding free energy” value was -0.09 kcal/mol. The value for CGTGCCACGTGCGTGG was -0.18 kcal/mol; that for CTGATCACGTGGGTCG was 0.06 kcal/mol; that for ATTGCCACGTGAGGGT was 0.01 kcal/mol.

For the sequence ACAGTCACGTGGGGTT, the “relative binding free energy” value is -0.11 kcal/mol. For the sequence CCAGGCACGTGGTGGA, the “relative binding free energy” value is -0.09 kcal/mol. Turning to TTTGACACGTGTAATG, the “relative binding free energy” value was 0.25 kcal/mol.

For TTGTCCACGTGGTGGT, the “relative binding free energy” value came to 0.01 kcal/mol. With AGAGTCACGTGGTGAT, the “relative binding free energy” value worked out at 0.08 kcal/mol.

Consider TGGAACACGTGTAGGA, for which the “relative binding free energy” value was determined as 0.14 kcal/mol. In the case of GGGGACACGTGTGTTG, the “relative binding free energy” value stood at 0.11 kcal/mol. GATCTCACGTGTTTGG: the “relative binding free energy” value came out at 0.21 kcal/mol. For GGAAGCACGTGCGGGG, the “relative binding free energy” value was -0.15 kcal/mol. CTAGTCACGTGCTTGT: the “relative binding free energy” value was 0.11 kcal/mol.

With GTAGGCACGTGGACGT, the “relative binding free energy” value was -0.1 kcal/mol. As to GTTTTCACGTGACGAT, the “relative binding free energy” value came out at 0.42 kcal/mol.

As to TGTATCACGTGTTAGA, the “relative binding free energy” value was found to be 0.11 kcal/mol. As to ATATGCACGTGATGTA, the “relative binding free energy” value amounted to 0.05 kcal/mol. Consider GAGGACACGTGTCGTG, for which the “relative binding free energy” value amounted to 0.1 kcal/mol. The value for TTTAACACGTGACTGT was 0.2 kcal/mol; that for ATGTGCACGTGTAGTA was 0.07 kcal/mol; that for TTGGGCACGTGCGGCT was -0.2 kcal/mol. For AGGAACACGTGGGTCT, the “relative binding free energy” value is -0.09 kcal/mol.

AGTGGCACGTGTCGCG: the “relative binding free energy” value is -0.19 kcal/mol. Take TATGTCACGTGAAGAA: the “relative binding free energy” value stood at 0.23 kcal/mol.

Turning to TTTGTCACGTGAAGTG, the “relative binding free energy” value was found to be 0.29 kcal/mol. As to ATGTTCACGTGAGGAA, the “relative binding free energy” value came out at 0.39 kcal/mol. As to GTGTTCACGTGTTCTC, the “relative binding free energy” value was determined as 0.3 kcal/mol. The value for GTAGCCACGTGATTTA was 0.25 kcal/mol. Regarding TTTAGCACGTGTATAG, the “relative binding free energy” value was -0.13 kcal/mol. Regarding GTGAGCACGTGGATTG, the “relative binding free energy” value is -0.04 kcal/mol. With GGTGACACGTGTGTGA, the “relative binding free energy” value worked out at 0.06 kcal/mol. The value for ATACTCACGTGAGGGT was 0.35 kcal/mol; that for TTTATCACGTGTGGAT was 0.19 kcal/mol. For TTAGGCACGTGTATCT, the “relative binding free energy” value was -0.11 kcal/mol. Regarding TCGTGCACGTGGGGGC, the “relative binding free energy” value is -0.2 kcal/mol. With GGCGGCACGTGTGGGG, the “relative binding free energy” value was 0.01 kcal/mol.

With GTGGGCACGTGTAGAT, the “relative binding free energy” value stood at 0.3 kcal/mol.

For the sequence ATAATCACGTGCGGGT, the “relative binding free energy” value was found to be 0.09 kcal/mol. For the sequence CATGTCACGTGGGGAA, the “relative binding free energy” value is 0.09 kcal/mol.

As for CATGGCACGTGAATGG, the “relative binding free energy” value stood at 0.21 kcal/mol. Turning to TAGATCACGTGGAGGG, the “relative binding free energy” value is 0.26 kcal/mol.
